From PubChem BioAssay AID493208 (National Center for Advancing Translational Sciences (NCATS), 2011)
In all, about 44,000 compounds went through this assay and about 340 (0.77%) were called active. About 5% were inconclusive and are not listed. The call rests on the fitted dose curve; in most records, active means well fitted inhibition curve with a large enough effect; inconclusive means small, poorly fitted or top-dose-only effect; inactive means flat fitted curve, though single readings scatter. The list shows a part of the results.

Experiment: Acumen qHTS Assay for Inhibitors of the mTORC1 Signaling Pathway in MEF (Tsc2-/-, p53-/-) Cells: Sytravon;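 further: plate controls were DMSO for no effect and rapamycin for full effect; nearly all actives have a fitted effect of over 50% in size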
Details: phospho-rpS6 immunofluorescence/PI, 24 h; series mostly up to 38.3 µM; activity change, negative = inhibition: at the top concentration
Procedure, shortened: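 Tsc2-/-, p53-/- MEFs (empty-vector stable line) in DMEM + 10% FBS were treated with compounds 24 h at 37 degree Celsius, fixed, and immunostained for phospho-rpS6 (Alexa-488) with propidium iodide counterstain. Laser-scanning cytometry gave % positive cells, normalized against 7.5 nM rapamycin and DMSO.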

Activity change, negative = inhibition, inactive:
Cc1ccc(-c2nc3nc(C)cc(C)n3c2Nc2ccc3c(c2)OCCO3)cc1 -0.286%, CC(=O)N1CCc2cc(Br)cc(S(=O)(=O)N3CCC(C)CC3)c21 0.592%, CCOc1ccc(NC(=O)Cn2c(=O)n(Cc3nc(-c4ccccc4)no3)c(=O)c3cc4c(cc32)OCO4)cc1 -0.438%, CC(=O)c1ccc(NC(=O)c2nc(-c3ccccc3)n(-c3ccc(Cl)cc3)n2)cc1 -0.165%, CCOC(=O)c1cc2c(=O)n3ccccc3nc2n(CCOC)c1=NC(=O)C(C)(C)Oc1ccc(Cl)cc1 1.3%, Cc1nc2nc(NC(=O)C(C)(C)C)[nH]n2c(=O)c1Cc1ccccc1 5.47%, Cc1ccc(Cn2ccn(CC(=O)Nc3c(C)cc(C)cc3C)c(=O)c2=O)cc1 -1.03%, CCCCN(C)CCCNC(=O)Cn1ncc2c3ccccc3n(Cc3ccccc3F)c2c1=O -0.143%, COc1ccc(NC(=O)Cn2c(=O)oc3cc(S(=O)(=O)NCc4ccccc4)ccc32)c(OC)c1 0.936%, Cc1noc(-c2ccc(N3CCC(C)CC3)c([N+](=O)[O-])c2)n1 -7.85%, COc1ccc(NS(=O)(=O)c2cc3c(cc2C)NC(=O)CO3)c(OC)c1 -1.03%, O=C(CSC1=Nc2ccccc2C2=NC(Cc3ccccc3)C(=O)N12)Nc1ccccc1C(F)(F)F (centres undefined) 5.85%, COc1cc(NC(=O)C2CCN(S(=O)(=O)c3ccc4c(c3)oc(=O)n4C)CC2)cc(OC)c1 -1.41%, Cc1cn2c(=O)cc(COc3ccccc3NC(=O)c3ccc(C(C)(C)C)cc3)nc2s1 1.14%, Cc1cccc(CNC(=O)c2oc3c(c2C)-c2nn(Cc4cccc(Cl)c4)cc2CC3)c1 -17.8%, CCOc1ccc(CN2C(=O)c3ccccc3Sc3ccc(C(=O)NC)cc32)cc1 2.24%, COC(=O)c1ccc2c(c1)N(CC(=O)Nc1cccc(Cl)c1C)C(=O)c1ccccc1S2 0.0086%, CC(C)NC(=O)Cn1c(=O)nc(-c2ccccc2F)c2cc(Cl)ccc21 0%, COc1ccc(-n2nnc(-c3nc(-c4cccs4)no3)c2N)cc1OC -1.04%, COC(=O)c1c(NC(=O)c2nc(SCc3cccc(C)c3)ncc2Cl)sc2c1CCCC2 1.7%, CC(=O)N1CCCC1c1nc2ccccc2n1Cc1cccc(Cl)c1 (centres undefined) 2.53%, COc1cc(NC(=O)CC(c2ccc(C)cc2)N2Cc3ccccc3C2=O)cc(OC)c1 (centres undefined) -5.22%, Cc1ccc(-c2noc(-c3ccc(NCc4ccco4)c([N+](=O)[O-])c3)n2)cc1 -5.15%, CC1=C(c2ccc(F)cc2)S(=O)(=O)NC1=NCc1ccccc1F -1.89%, COc1cc(C2CC(=O)c3c([nH]c(C(=O)OCC4CCCCC4)c3C)C2)cc(OC)c1OC (centres undefined) -19.8%, COc1ccccc1C(=O)Nc1nc2nc(-c3ccccc3)cc(=O)n2[nH]1 0.175%, CCc1nn2c(=O)cc(COC(=O)c3ccc(NC(=O)c4cccs4)cc3)nc2s1 0%, Cc1ccccc1NS(=O)(=O)c1ccc2[nH]cc(C(=O)NC(C)c3ccccc3)c(=O)c2c1 (centres undefined) 0.6%, CCOc1ccccc1CNC(=O)Cn1ncn2nc(-c3cccs3)cc2c1=O 1.33%, Cc1ccc(C)c(CNC(=O)C2CCN(c3nc4ccccc4nc3C(F)(F)F)CC2)c1 -0.541%, COc1ccc(Nc2nnc(-c3cc4c(ccc5ccccc54)oc3=O)s2)cc1 6.41%, COc1ccccc1CCNC(=O)C(=O)NCC(c1cccs1)S(=O)(=O)c1ccc(C)cc1 (centres undefined) 0.59%, O=C1C(=O)N(C2CCN(C(=O)c3ccc(Cl)cc3)CC2)CCN1Cc1ccc(F)cc1 -1.49%, CCN(CC)CCCNC(=O)c1ccc2nc(N3CCCCC3)sc2c1 -16.8%, CCNC(=O)c1ccc2nc(CCc3ccccc3)oc2c1 -6.68%, COc1ccc(CCNC(=O)c2cc(C)nc3c2c(C)nn3-c2ccc(C)cc2)cc1OC -3.74%, Cc1n[nH]c(C)c1S(=O)(=O)N1CCCC(C(=O)Nc2ccc(Br)cc2)C1 (centres undefined) -7.11%, Cc1cc(Nc2ccccc2C)nc(-n2nc(C)cc2C)n1 -2.65%, CCCN(C(=O)c1cn(C)c(=O)c2ccccc12)c1ccccc1C -1.46%, O=C(CN1CCSc2ccccc21)NCc1ccccc1F -0.32%, CCOc1ccccc1C(=O)N(Cc1cc(OC)c(OC)c(OC)c1)C1CCS(=O)(=O)C1 (centres undefined) 3.97%, CCOc1ccccc1CN1CCc2nc(N3CCN(c4ccccc4F)CC3)ncc2C1 0%, COc1ccc2nc(N(Cc3cccnc3)C(=O)C3COc4ccccc4O3)sc2c1 (centres undefined) 0.194%, CCCOc1ccc(CN(C(=O)c2cc(=O)c3ccc(C)cc3o2)C2CCS(=O)(=O)C2)cc1 (centres undefined) -9.95%, COc1ccc(N2CCN(S(=O)(=O)CCNC(=O)C3CC(=O)N(c4ccccc4)C3)CC2)cc1 (centres undefined) -9.67%, COc1cc(C)ccc1OCCSc1nc(-c2cccc(C)c2)nc2cc(=O)[nH]n12 -2.59%, COc1cccc(C(=O)CC2(O)C(=O)Nc3ccc(Cl)cc32)c1 (centres undefined) -16.6%, Cc1nc(CC(=O)Nc2cc(Cl)ccc2C)cs1 3.76%, COc1ccc(C)cc1NC(=O)COCc1cc(-c2cccs2)on1 7.46%, CCOc1ccc(NC(=O)CSc2nc3c(c(=O)[nH]2)CCCC3)cc1 1.37%, COc1cc(C2c3c(oc4ccc(F)cc4c3=O)C(=O)N2c2nc(C)c(C)s2)cc(OC)c1OC (centres undefined) 2.76%, O=C(CCS(=O)(=O)c1cc(Br)cc2c1N(C(=O)C1CC1)CC2)N1CCN(c2ccc(F)cc2)CC1 -12%, Cc1ccc(N(C)C(=O)Cn2cnc3onc(-c4ccc(F)cc4)c3c2=O)cc1C 2.68%, Cc1ccc2ncc(C(=O)NCCc3ccc(S(N)(=O)=O)cc3)c(=O)n2c1 0.357%, COc1ccc(CCNC(=O)CCCn2c(=O)c3ccccc3n(Cc3ccc(C)cc3)c2=O)cc1OC 3.1%, Cc1nn2c(C)c(C(=O)N3CCN(c4ccccc4)CC3)cnc2c1-c1ccccc1 -11.4%, Cc1ccc(CCNC(=O)c2cc3c(=O)oc4ccccc4c3s2)cc1 -0.674%, COc1ccccc1OCCn1c(COc2cc(C)ccc2C)nc2ccccc21 -1.15%, COc1cc(NC(=O)CSc2nc3ccccc3nc2Cc2ccccc2OC)cc(OC)c1 6.45%, COc1cccc(CNC(=O)CNS(=O)(=O)c2ccc3nc(C)sc3c2)c1 -0.0917%, CCOc1ccccc1Nc1sc(C(=O)c2ccccc2)c(N)c1C(=O)NCCc1ccccc1 -1.27%, CCC(=O)Nc1ccc(C)cc1-c1nc2ccccc2n(CC(=O)Nc2ccccc2Cl)c1=O -12.7%, COc1cc(OC)cc(C(=O)Nc2ccc3oc(-c4ccccc4C)nc3c2)c1 3.03%, COc1ccc(NC(=O)Cn2c(=O)n(CC3CCCO3)c(=O)c3ccccc32)c(OC)c1 (centres undefined) 1.92%, COc1cccc(-c2cc(C(=O)Nc3cc(C)nn3-c3ccccc3)no2)c1 -14.1%, Cc1ccccc1NC(=O)c1c(C)oc2ccc(O)c(CN3CCCC3)c12 2.73%, CC(C)CNc1nc(NC(C)(C)C)nc(Oc2ccc(=O)n(-c3ccccc3)n2)n1 0.564%, COc1ccc2c(c1)c1c(c(=O)n(CCc3ccccc3)c(=O)n1Cc1ccccc1)n2C -0.455%, O=C(c1cc2ccc3cccnc3c2[nH]1)N1CCN(c2cccc(C(F)(F)F)c2)CC1 -9.44%, Cc1ccc(NC(=O)c2oc3ccc(S(=O)(=O)N4CCCCC4)cc3c2C)cc1C 3.27%, Cc1ccc(C)c2sc(NC(=O)c3ccc(S(=O)(=O)N4CCCC4)cc3)nc12 3.19%, CC(=O)N1CCOc2cc(S(=O)(=O)NCc3ccc(C)cc3)c(C)cc21 4.84%, Cc1c(CNCc2ccc(OC(C)C)cc2)c(C(=O)O)c(C)n1Cc1ccc(Cl)cc1 -0.225%, CCN1CCN(CCCNC(=O)c2cc3c(=O)n(CC)c4ccccc4c3s2)CC1 0.93%, COc1ccc(N(C(=O)c2ccccc2F)S(=O)(=O)c2ccc3c(c2)n(C)c(=O)n3C)cc1 -3.17%, CCOc1ccc(CNC(=O)c2ccc3c(c2)nc2n3CCOC2)cc1 0.305%, COc1ccc(-c2cc(C(F)(F)F)nc(SCC(=O)N(C)Cc3ccccc3)n2)cc1OC -5.38%, CCC(C)(C)NS(=O)(=O)c1cc(-c2cc(C)no2)ccc1C 2.28%, CCN1c2ccccc2-c2nc(SCC(=O)Nc3cccc(C(F)(F)F)c3)ncc2S1(=O)=O -9.21%, COc1cc(O)ccc1C1CC(=O)Nc2c1c(=O)nc(SCc1ccccc1C)n2C (centres undefined) 0.262%, CCOC(=O)c1cccc(NC(=O)c2cc(S(=O)(=O)N3CCCCCC3)cn2C)c1 0.44%, COc1ccc(CNc2oc(-c3ccc(COc4ccc(Cl)cc4)o3)nc2C#N)cc1 0%, Cc1ccc(C)c(CN2C(=O)c3ccccc3S(=O)c3ccc(C(=O)N4CCC(C)CC4)cc32)c1 (centres undefined) 5.49%, COc1ccc(CNC(=O)c2c(Nc3ccc(OC)cc3OC)sc(C(=O)c3ccc(Cl)cc3)c2N)cc1 -8.43%, CCOC(=O)CSc1nc2sc3c(c2c(=O)n1Cc1ccccc1)CCC(C(C)(C)C)C3 (centres undefined) 14.6%, Cc1ccc(CNC(=O)C2CCC(CNS(=O)(=O)c3ccc4c(c3)CCCC(=O)N4)CC2)cc1 (centres undefined) 3.54%, CC(C)OCCCNC(=O)CCCn1c(=O)[nH]c2ccsc2c1=O 9.04%, CCOc1ccc(CNC(=O)c2cc(=O)[nH]c3ccc(S(=O)(=O)N4CCCCC4)cc23)cc1 12.1%, Cc1cc(C)cc(Nc2cc(C(=O)NCCCN(Cc3ccccc3)C(C)C)c3ccccc3n2)c1 -1.28%, COc1ccc(CN(C(=O)c2cc3ccccc3oc2=O)C2CCS(=O)(=O)C2)cc1 (centres undefined) -1.69%, O=C(Nc1cccc(-c2nc3ccccc3o2)c1)c1cc([N+](=O)[O-])ccc1N1CCOCC1 2.7%, Cc1cccc(C)c1OCCSc1nc2ccccc2n1CC(=O)O 5.82%, COc1ccc(N2CCN(S(=O)(=O)c3csc(C(N)=O)c3)CC2)cc1 -9.16%, CCN(Cc1ccccc1)C(=O)Cn1c(=O)n(-c2ccc(F)c(Cl)c2)c(=O)c2sc3ccccc3c21 -17.2%
